# PubChem BioAssay AID624417 (National Center for Advancing Translational Sciences (NCATS), 2012)
# Hit rate of the full screen: of about 410,000 compounds, about 6,400 (1.6%) were called active. Inconclusive results, whose numbers are uncertain, are shown with a selection of clear calls. Calls come from the whole dose curve; as a rule, active = well fitted inhibition curve with a large enough effect; inconclusive = small, poorly fitted or top-dose-only effect; inactive = no such curve, though single readings can be large or run the other way. No potency is given beside an inconclusive call; the fits are too rough.
# Target: Glucagon-like peptide 1 receptor (Homo sapiens) (UniProt P43220)
# Sequence of UniProt P43220 (P43220 whole entry, looked up): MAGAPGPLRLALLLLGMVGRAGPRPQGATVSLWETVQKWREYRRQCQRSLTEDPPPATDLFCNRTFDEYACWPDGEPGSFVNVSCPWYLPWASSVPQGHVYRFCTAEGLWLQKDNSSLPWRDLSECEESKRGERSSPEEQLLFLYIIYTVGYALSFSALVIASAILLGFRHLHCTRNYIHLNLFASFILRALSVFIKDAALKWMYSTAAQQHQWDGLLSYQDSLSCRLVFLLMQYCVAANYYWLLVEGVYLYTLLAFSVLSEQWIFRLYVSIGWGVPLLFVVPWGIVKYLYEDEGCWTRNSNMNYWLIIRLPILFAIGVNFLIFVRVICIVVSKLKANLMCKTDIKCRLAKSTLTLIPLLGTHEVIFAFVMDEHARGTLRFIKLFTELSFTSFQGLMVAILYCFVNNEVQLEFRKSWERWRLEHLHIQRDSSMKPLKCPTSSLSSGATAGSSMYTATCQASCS
# Experiment: qHTS of GLP-1 Receptor Inverse Agonists (Inhibition Mode); note: nearly all actives have a fitted effect of over 55% in size
# Details: HEK293 GLP-1R CRE-luciferase, luminescence, 24 h, GLP-1R form is constitutively active; activity change, negative = inhibition: at 38.3 µM (top of the series) unless noted
# Procedure, shortened: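 Seeding at 200 cells/uL, 12 h culture, 24 hr compound treatment, then luciferase reagent and a luminescence read; cells are HEK293 stably expressing a constitutively active GLP-1R plus cAMP-responsive luciferase.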
# % is set by controls: 0 for no effect and ±100 for the full control effect; potency is the fitted concentration of half-maximal effect; tags give direction and shape of the fitted curve.
Compound,"activity change, negative = inhibition",Potency
O=C(Nc1ccc(Cl)cc1Cl)NC1CCN(S(=O)(=O)c2ccc(F)cc2)CC1,inactive: 18.6%,
CCOC(=O)C(C)n1cnc2scc(-c3ccc(C)c(C)c3)c2c1=O (centres undefined),,"inconclusive [inhibitor, single point]"
Cn1c2ccccc2c(=O)c2c(=O)n(-c3ccccc3)c(C3CCCCC3)nc21,,"inconclusive [inhibitor, partial curve, poor fit]"
CCc1c(C)nc2ncnn2c1N1CCC(C(=O)Nc2ccc(C)cc2)CC1,,"inconclusive [inhibitor, single point]"
COCCc1ncc(CN2CCC(C(=O)Nc3cccc(-c4cscn4)c3)CC2)cn1,,"inconclusive [inhibitor, partial curve, poor fit]"
COc1ccccc1/C=N/N1CCN(Cc2ccccc2Cl)CC1,,"inconclusive [inhibitor, single point]"
COc1ccc(-n2c3c(cc(C(=O)NNc4ccccc4C)c2=O)C(=O)CC(C)(C)C3)cc1,,"inconclusive [inhibitor, partial curve, poor fit]"
Cc1ccc(S(=O)(=O)N2CCOCC2)cc1NC(=O)Cn1nnc(-c2ccccc2)n1,,"inconclusive [inhibitor, partial curve, poor fit]"
CCOC(=O)C1=C(C)NC(C)=C(C(=O)OCC)C1c1ccc(O)cc1,inactive: 7.74%,
CC(=O)NCCn1ccc2ccccc21,inactive: 0.584%,
COc1ccccc1OCC(=O)/C=C1/N(C)c2ccccc2C1(C)C,,active: 10 µM
COC(=O)[C@H](CC(C)C)N(Cc1ccccc1)S(=O)(=O)N(Cc1ccccc1)[C@@H](CC(C)C)C(=O)OC,,"inconclusive [inhibitor, full curve, poor fit]"
COc1cccc(-c2nn(-c3ccccc3)cc2C(=O)O)c1,inactive: -25.9%,
Cc1ccc(N2C(=O)CC(Cc3ccc(Cl)cc3)C2=O)cc1 (centres undefined),inactive: -21.4%,
O=C(/C=C/c1ccccc1)CC(=O)c1ccccc1,,"inconclusive [inhibitor, partial curve, poor fit]"
Cc1ccc2[nH]c(C)c(CC(=O)NCc3ccccc3)c2c1,,"inconclusive [inhibitor, single point]"
Fc1ccc(-c2nc3ccc(Cl)cn3c2Cc2ccccc2C(F)(F)F)cc1,,"inconclusive [inhibitor, single point]"
O=C(Nc1ccc(F)cc1Cl)C1Cc2ccccc2N1C(=O)c1ccccc1 (centres undefined),inactive: 5.34%,
COc1ccc(N2CCCC2=O)cc1S(=O)(=O)N1CCOCC1,inactive: 17.6%,
Cc1cc(C)c2cc(C(=O)N3CCc4ccccc4C3)[nH]c2c1,,"inconclusive [inhibitor, single point]"
COc1cc(OC)c2ccc(=O)oc2c1C(CCN1CCCC1)c1ccc2c(c1)OCO2 (centres undefined),inactive: 39.9%,
CCOC(=O)c1nn(-c2cccc(C)c2)cc1C(=O)c1ccccc1,,"inconclusive [inhibitor, single point]"

Compound,"activity change, negative = inhibition",Potency
Cc1nc2c(C(=O)NCCC(C)C)c[nH]n2c(=O)c1Cl,inactive: -5.76%,
CN(c1ccccc1)C1CCCCC1NS(=O)(=O)c1ccc(Cl)cc1 (centres undefined),,"inconclusive [inhibitor, partial curve, poor fit]"
COC(=O)[C@]12CCCCC=C1N(CCC1=CCCCC1)C(=O)[C@H](CC(=O)NCCC(C)C)C2,,"inconclusive [inhibitor, single point]"
O=C(NCCc1csc(-c2ccc(F)cc2)n1)c1c(F)cccc1Cl,,"inconclusive [inhibitor, partial curve]"
CCC1CCCCN1CCCNC(=O)c1ccc2nc(N3CCC(C)CC3)sc2c1 (centres undefined),,"inconclusive [inhibitor, full curve, poor fit]"
CS(=O)(=O)N1CCC(Oc2ccccc2C(=O)N2CCCCC2CO)CC1 (centres undefined),inactive: 14.5%,
Cc1cc(C)c(S(=O)(=O)NCCc2ccccc2)c(C)c1,,"inconclusive [inhibitor, single point]"
CCOC(=O)c1c(NC(=O)Cn2nnc3ccccc32)sc2c1CCC(C)C2 (centres undefined),,"inconclusive [inhibitor, single point]"
c1ccc(C(c2ccccc2)c2noc(CN3CCC(c4ccncc4)CC3)n2)cc1,,"inconclusive [inhibitor, partial curve, poor fit]"
CN(C(=O)CSc1nc2ccccc2n1Cc1cccc(C(F)(F)F)c1)c1ccccc1,,active: 10 µM
CC1=Nc2ccc(C)c3nc(C)cc(c23)N1c1ccc(C)cc1,,"inconclusive [inhibitor, single point]"
CC12CCC(=O)C=C1CCC1C2CCC2(C)C1CC1C3C(=O)N(Cc4ccccc4)C(=O)C3CC(=O)C12 (centres undefined),,"inconclusive [inhibitor, single point]"
CC(C)CSc1oc(-c2ccco2)nc1S(=O)(=O)c1ccc(Br)cc1,,"inconclusive [inhibitor, single point]"
CCOC(=O)c1nn(-c2ccc3ccccc3c2)cc1O,,"inconclusive [inhibitor, partial curve, poor fit]"
O=C(Nc1ccc(N2CCCCC2)c(Cl)c1)c1ccc2c(c1)OCCO2,,"inconclusive [inhibitor, partial curve, poor fit]"
CCCCCCCCN1C(=O)[C@H](CC(=O)N2CCN(C(=O)c3ccco3)CC2)C[C@@]2(C(=O)OC)CC(C)(C)CC=C12,,"inconclusive [inhibitor, partial curve, poor fit]"
O=C(Nc1ccc(N2CCOCC2)cc1)C1CCN(S(=O)(=O)c2cccc(C(F)(F)F)c2)CC1,inactive: -16.8%,
O=C(c1ccc(S(=O)(=O)Cc2cc(F)ccc2F)c([N+](=O)[O-])c1)N1CCCCC1,,"inconclusive [inhibitor, partial curve, poor fit]"
N#CCSc1nc2sc3c(c2c(=O)n1C1CCCCC1)CCCC3,,"inconclusive [inhibitor, full curve, poor fit]"
COc1cc(C)ccc1S(=O)(=O)NC1CC(C)(C)NC(C)(C)C1,,"inconclusive [inhibitor, full curve, poor fit]"
ClCC1NCC(c2ccccc2Cl)c2c1[nH]c1ccccc21 (centres undefined),,"inconclusive [inhibitor, single point]"
COCCCNC(=S)N1CCN(c2nc(-c3ccc(Cl)cc3)cs2)CC1,,"inconclusive [inhibitor, partial curve, poor fit]"

Compound,"activity change, negative = inhibition",Potency
Cc1cccc(Cn2c(=O)oc3ccc(C)cc32)c1,inconclusive: -75.5% [inhibitor],
CCOc1ccc(S(=O)(=O)N(C(=O)c2ccncc2)c2ccc3oc(C)c(C(=O)OC)c3c2)cc1,,"inconclusive [inhibitor, full curve]"
O=S(=O)(Nc1ccc(-n2cccc2)cc1)c1ccc(Cl)c(Cl)c1,,"inconclusive [inhibitor, single point]"
COc1ccccc1C(=O)N/N=C(\C)CC(=O)Nc1ccc(Nc2ccccc2)cc1,,"inconclusive [inhibitor, single point]"
CC[C@H](CO)Nc1nc(Nc2cccc(Cl)c2)c2ncn(C(C)C)c2n1,,"inconclusive [inhibitor, full curve, poor fit]"
CC1(C)NC(=O)N(CC(O)CN(Cc2ccccc2)Cc2ccccc2)C1=O (centres undefined),,"inconclusive [inhibitor, single point]"
COc1ccc(-c2cc(C(=O)Nc3ccc(C(N)=O)cc3)c3ccccc3n2)cc1OC,,"inconclusive [inhibitor, single point]"
Cc1ccc(-c2cc(C(=O)NCCCN3CCOCC3)c3ccccc3n2)cc1,,"inconclusive [inhibitor, single point]"
CSc1cccc(CN2CCC(CO)(Cc3cccc(C(F)(F)F)c3)CC2)c1,,"inconclusive [inhibitor, partial curve, poor fit]"
Cc1cccc(C)c1Cn1c(C)c(C(=O)NCc2ccc(C#N)cc2)sc1=O,,"inconclusive [inhibitor, partial curve, poor fit]"
O=C(CCc1ccccc1)c1c(O)cc(O)cc1O,,"inconclusive [inhibitor, single point]"
COc1cccc(C(=O)NC(C)c2cccc3ccccc23)c1OC (centres undefined),,"inconclusive [inhibitor, single point]"
CCn1c(=O)cc(OCC(=O)NCc2ccco2)c2ccccc21,inactive: -0.824%,
Cc1ccc(-c2nc3ccccc3s2)cc1S(=O)(=O)N1CCCC1,,"inconclusive [inhibitor, single point]"
Cc1ccc(Nc2n[nH]c(=S)s2)c(C)c1,inactive: 10.1%,
COc1cccc(NC(=O)C(CCSC)NC(=O)C2CCC(C)CC2)c1 (centres undefined),inactive: -24%,
COC(=O)c1ccc(NC(=O)CCS(=O)(=O)c2ccc3c(c2)NC(=O)C(C)S3)cc1 (centres undefined),,"inconclusive [inhibitor, partial curve, poor fit]"
COc1ccc(CN2CCOCCOCCN(Cc3ccc(OC)cc3)CCOCCOCC2)cc1,,"inconclusive [inhibitor, partial curve, poor fit]"
N/C(=N\OC(=O)c1cccc(Cl)c1)c1ccccn1,,"inconclusive [inhibitor, partial curve, poor fit]"
O=C(c1ccc(Cl)c(S(=O)(=O)N2CCCCCC2)c1)N1CCCCC1,,"inconclusive [inhibitor, single point]"
